The assay deals with T1, CRM1_1-1062VLV430AAA mutant (UniProt O14980, VLV430AAA).
T1 construct: nuclear export receptor CRM1, residues 1-1062 with VLV430AAA; pTGA20 vector obtained from Dr. Sonia Banuelos; source: E. coli BL21-CodonPlus-RIL, purified (HisTrap FF, TEV cleavage, HiTrap Q HP)
Description: fluorescence polarisation; fluorescence anisotropy competition; Atto488-Survivin120 preincubated with CRM1_1-1062VLV430AAA at 1:5, titrated with tweezers to approx. 180 µM; PBS pH 7.4, 25 °C; n = 1. The conditions noted are these: both partners purified. Background: Fluorescence polarisation rises when a labelled molecule tumbles more slowly, as on binding a larger partner.

This is an account of results in paper PMC7940618, “Specific inhibition of the Survivin–CRM1 interaction by peptide-modified molecular tweezers” (Nature Communications, 2021).

T1 sequence (O14980 other isoform, or with tags, fused parts or gaps VLV430AAA | VLV430AAA | mutant): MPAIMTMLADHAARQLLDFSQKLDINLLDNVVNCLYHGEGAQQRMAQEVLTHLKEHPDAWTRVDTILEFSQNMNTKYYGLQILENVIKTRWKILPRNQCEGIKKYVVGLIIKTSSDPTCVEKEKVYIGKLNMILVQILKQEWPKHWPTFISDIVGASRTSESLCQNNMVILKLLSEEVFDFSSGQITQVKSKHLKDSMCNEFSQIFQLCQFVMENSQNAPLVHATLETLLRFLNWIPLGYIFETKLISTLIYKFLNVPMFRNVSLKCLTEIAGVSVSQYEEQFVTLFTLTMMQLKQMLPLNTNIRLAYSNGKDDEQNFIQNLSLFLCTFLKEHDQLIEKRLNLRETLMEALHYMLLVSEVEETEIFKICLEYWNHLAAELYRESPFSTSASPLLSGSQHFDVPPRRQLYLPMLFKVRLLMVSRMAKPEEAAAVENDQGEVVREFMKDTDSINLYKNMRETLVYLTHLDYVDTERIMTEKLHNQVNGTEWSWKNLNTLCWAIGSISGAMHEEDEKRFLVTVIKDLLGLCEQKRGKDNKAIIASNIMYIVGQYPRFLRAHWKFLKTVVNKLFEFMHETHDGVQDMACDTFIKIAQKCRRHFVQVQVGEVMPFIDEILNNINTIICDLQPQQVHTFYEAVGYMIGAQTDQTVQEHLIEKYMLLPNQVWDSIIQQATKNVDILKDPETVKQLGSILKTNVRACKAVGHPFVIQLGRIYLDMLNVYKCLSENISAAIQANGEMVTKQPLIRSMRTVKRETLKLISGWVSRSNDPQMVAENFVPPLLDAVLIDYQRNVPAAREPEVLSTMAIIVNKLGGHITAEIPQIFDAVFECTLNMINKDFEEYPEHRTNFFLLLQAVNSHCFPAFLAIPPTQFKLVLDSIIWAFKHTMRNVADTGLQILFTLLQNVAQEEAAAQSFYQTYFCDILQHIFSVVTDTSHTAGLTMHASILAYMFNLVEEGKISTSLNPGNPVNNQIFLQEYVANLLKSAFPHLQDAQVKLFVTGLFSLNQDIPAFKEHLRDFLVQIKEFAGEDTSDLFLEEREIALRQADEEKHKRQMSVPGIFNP

B1: Atto488-labeled Survivin120 (domain or fragment)
chain: not shown
modifications: ATTO488-maleimide label (site not stated)
notes: Survivin (BIRC5 isoform alpha), human, […]; Named without GST, so the GST tag was probably cleaved (surmise); source: E. coli soluBL21, purified, labeled with ATTO488-maleimide
With B1, the binding result was “binds”.
